Paper PMC4336329 (PLoS ONE, 2015)
Hit rate of the full screen: of about 310,000 compounds, about 14,000 (4.5%) showed an effect of 50% or more. The effect is printed as a negative number. This is one part of the list.

These compounds were tested against human ether-à-go-go-related gene (hERG) potassium channel (human, UniProt Q12809) (assay: primary screen, population patch clamp on CHO cells stably expressing hERG).
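Note: peak tail current of the secondary pulse compared with the same well before compound.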

Chain of human ether-à-go-go-related gene (hERG) potassium channel (Q12809 whole entry, looked up): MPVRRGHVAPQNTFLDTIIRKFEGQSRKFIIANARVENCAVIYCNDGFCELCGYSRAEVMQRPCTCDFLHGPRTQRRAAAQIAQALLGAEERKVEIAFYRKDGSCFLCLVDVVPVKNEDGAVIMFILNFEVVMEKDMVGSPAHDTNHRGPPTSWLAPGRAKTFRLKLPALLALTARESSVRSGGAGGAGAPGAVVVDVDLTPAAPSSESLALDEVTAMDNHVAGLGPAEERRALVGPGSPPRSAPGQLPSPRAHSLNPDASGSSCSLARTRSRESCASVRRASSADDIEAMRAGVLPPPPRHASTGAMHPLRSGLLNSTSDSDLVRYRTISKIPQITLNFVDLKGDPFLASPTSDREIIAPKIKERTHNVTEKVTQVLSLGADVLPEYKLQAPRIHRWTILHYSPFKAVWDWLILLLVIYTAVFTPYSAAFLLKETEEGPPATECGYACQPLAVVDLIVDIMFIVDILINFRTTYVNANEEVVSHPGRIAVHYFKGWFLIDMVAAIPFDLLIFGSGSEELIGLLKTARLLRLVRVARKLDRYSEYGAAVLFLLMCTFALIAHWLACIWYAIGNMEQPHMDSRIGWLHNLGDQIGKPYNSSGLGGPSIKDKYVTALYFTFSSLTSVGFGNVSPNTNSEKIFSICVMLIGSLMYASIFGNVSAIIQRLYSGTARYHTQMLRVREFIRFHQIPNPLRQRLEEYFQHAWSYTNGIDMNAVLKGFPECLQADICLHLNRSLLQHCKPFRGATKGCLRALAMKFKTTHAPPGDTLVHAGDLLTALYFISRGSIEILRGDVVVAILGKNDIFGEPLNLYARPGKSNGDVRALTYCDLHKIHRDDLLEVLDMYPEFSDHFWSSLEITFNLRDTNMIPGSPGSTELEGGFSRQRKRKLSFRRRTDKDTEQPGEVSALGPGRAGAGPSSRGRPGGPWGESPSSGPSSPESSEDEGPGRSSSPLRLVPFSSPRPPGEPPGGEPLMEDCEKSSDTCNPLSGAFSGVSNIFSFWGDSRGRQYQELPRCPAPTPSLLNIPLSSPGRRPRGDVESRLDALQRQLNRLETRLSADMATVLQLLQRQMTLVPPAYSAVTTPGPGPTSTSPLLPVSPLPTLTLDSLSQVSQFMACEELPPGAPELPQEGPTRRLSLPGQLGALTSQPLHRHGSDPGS

Row | SMILES | hERG current change (%, negative = inhibition) at 10uM [%]
1 | CCC(=O)Nc1cccc(C(=O)OC)c1 | 10.6
2 | C=CC[C@]12CCc3sccc3C1N(c1ccc(C(=O)OCC)cc1)C2=O (stereo partly shown) | 6.35
3 | Cc1cc(C)cc(NC(=O)Cn2cnc3c(nnn3Cc3ccc(F)cc3)c2=O)c1 | 18.3
4 | COn1c(-c2ccccc2)nc2c1CCc1nonc1-2 | 4.76
5 | Cc1sc(NC(=O)c2ccco2)c(C(c2ccccc2)N2CCC(C)CC2)c1C (stereo not shown) | 14.6
6 | Nc1cc(-c2ccccc2)nn1Cc1ccccc1 | -25.8
7 | CC(=O)OCC(=O)C1=CCC2C3CCC4=CC(=O)C=CC4(C)C3(F)C(OC(C)=O)CC12C (stereo not shown) | 4.04
8 | Cc1ccccc1NC(=S)N1CCN(Cc2ccccc2)CC1 | 13.9
9 | O=C(O)CCCc1c(-[n+]2ccccc2)[nH]c2ccccc12.[Cl-] | 32.2
10 | O=C(C1CCCN(Cc2cccnc2)C1)N1CCCCC1.O=C(O)C(=O)O (stereo not shown) | 7.77
11 | Cc1ccc(NC(=O)CN(C)CC(=O)Nc2sc3c(c2C(N)=O)CCC3)cc1 | -55.5
12 | COc1cccc(CCNC(=O)CCc2nnc(-c3ccc4c(c3)OCO4)o2)c1 | -7.05
13 | COC(=O)c1ccc(CSc2ccc3nnc(-c4ccc(F)cc4)n3n2)o1 | -29.1
14 | Cc1ccccc1N=C1N=C(N)c2ccccc21 | -2.13
15 | CCOc1ccc2[nH]c(=O)c(CN(CCN3CCCC3)C(=S)Nc3ccccc3OCC)cc2c1 | -70.2
16 | CCCC[C@@H]1CNCCN1CCc1cccc(F)c1 | -49.6
17 | O=C(NC12CC3CC(CC(C3)C1)C2)N1CCC(O)(c2ccc3c(c2)OCO3)CC1 | -1.21
18 | O=C(NNC(=S)NC(=O)c1ccccc1[N+](=O)[O-])c1ccccc1O | 8.13
19 | COc1ccc(-c2n[nH]c(=S)n2-c2ccc3c(c2)OCCO3)cc1OC | 15.2
20 | Cc1cc(=O)[nH]c(SCC(=O)N2C(C)CCCC2C)n1 (stereo not shown) | 3.9
21 | Cc1cccc(C(=O)NNC(=O)c2cccc([N+](=O)[O-])c2)c1 | 5.61
22 | CCCCn1c(NC(=O)c2ccc(Br)o2)c(C(=O)OCC)c2nc3ccccc3nc21 | -53.8

Row | SMILES | hERG current change (%, negative = inhibition) at 10uM [%]
23 | CCOC(=O)c1noc(C)c1C(=O)Nc1nccs1 | 14.1
24 | Cc1nc2oc3ccccc3c(=O)c2cc1C(=O)O | 22.6
25 | CC(C)CN(CC(C)C)C(=O)Nc1cccc([N+](=O)[O-])c1 | 11.9
26 | CCC(=O)Nc1ccccc1C(=O)OCC(=O)c1ccc2ccccc2c1 | 1.16
27 | CN(C)S(=O)(=O)c1cccc(NC(=O)CCCC2CCCCC2)c1 | 6.35
28 | COc1cccc(C(c2c(NC(=O)c3ccccc3)sc(C)c2C)N2CCN(C)CC2)c1 (stereo not shown) | -17.6
29 | Cc1cccc(N/C=C/C(=O)c2ccc(Cl)cc2)c1 | 21.2
30 | Cc1nnc(SCC(=O)Nc2sccc2C#N)n1Cc1ccccc1 | -31
31 | O=C(O)c1cccc(N2C(=O)Nc3ccccc3N2O)c1 | 10.2
32 | CCC1Oc2ccc(Cl)cc2N(CC(=O)O)C1=O (stereo not shown) | -10.1
33 | O=C1Cn2c(nc3ccccc32)-c2ccccc2N1 | 0.249
34 | O=C1c2ccccc2C(=O)N1SC1CCCCC1 | 30.3
35 | CS(=O)(=O)N1CCC(C(=O)N2CCN(c3ccccc3)CC2)CC1 | 17.1
36 | O=C(NC1CCN(Cc2ccccc2)CC1)c1ccccc1Cl | 1.15
37 | COC(=O)C1=C(c2cc3ccccc3o2)C[C@@H]2CC[C@H]1N2C(=O)N1CCC(O)CC1 | 0.432
38 | C=CCNC(=O)/C(C#N)=C/c1ccc(C(=O)O)cc1 | 13.6
39 | O=C(Nc1ccc(C(=O)NCC2CCN(Cc3ccccc3F)CC2)cc1)C1=CSCCO1 | -9.04
40 | COc1cccc(-c2nc(NCc3cccnc3)c3ccccc3n2)c1O | 13.7
41 | CCOc1ccc(NC(=O)N(C2CCCCC2)C2CCN(C(C)=O)CC2)cc1 | -7.04
42 | CN1CCN(C(=O)C2=C[C@@H](c3ccc4c(c3)OCO4)C[C@@H](OCc3ccc(CO)cc3)O2)CC1 | -17
43 | COc1ccc(-c2cc(C(=O)NC(C)c3ccccn3)c3ccccc3n2)cc1OC (stereo not shown) | -4.89
44 | O=C(OC1CCS(=O)(=O)c2sccc21)c1ccccc1 (stereo not shown) | -7.52

Row | SMILES | hERG current change (%, negative = inhibition) at 10uM [%]
45 | Cc1cc(C)cc(NS(=O)(=O)c2ccc(NC(=O)C3CCCCC3C(=O)O)cc2)c1 (stereo not shown) | 2.18
46 | Cn1ccnc1SCc1ccc(Cl)cc1Cl | 2.42
47 | O=C(Cn1cnc2cc([N+](=O)[O-])ccc2c1=O)Nc1ccccc1Cl | -1.06
48 | O=C1c2ccccc2C(=O)N1C1CCCCC1 | 29.8
49 | O=S(=O)(c1ccc(Oc2ccc(-c3nnco3)cc2)nc1)N1CCC(Cc2ccccc2)CC1 | 0.174
50 | O=C(O)c1ccc(S(=O)(=O)c2ccc3c(c2)C(=O)N(c2ccc(O)cc2)C3=O)cc1 | 11.3
51 | O=C(CN1CCOCC1)N/N=C/c1c(O)ccc2ccccc12 | 3.49
52 | O=C1NC(=S)N/C1=C\c1ccc(Oc2ccc(C(F)(F)F)cc2[N+](=O)[O-])c(Cl)c1 | 12.9
53 | CCN(CC)S(=O)(=O)c1ccc(S(=O)(=O)N2CCCC2)cc1 | 1.61
54 | CCN(CC)C(=O)Cn1c(=O)c2ccccc2n2c(=S)sc(-c3cccc(C)c3)c12 | 19.4
55 | CCOC(=O)c1ccc(S(=O)(=O)N2CCN(C(=O)c3cc(=O)c4ccccc4o3)CC2)cc1 | -38.2
56 | O=C1C2C3C=CC(C3)C2C(=O)N1c1ccncc1 (stereo not shown) | 4.4
57 | CCc1ccc(NC(=O)c2c(C(=O)Nc3ccccc3)sc3nc(C)cc(=O)n23)cc1 | 16.4
58 | COc1cccc(C2NC(=O)c3ccccc3O2)c1OCc1ccccc1F (stereo not shown) | 2.09
59 | CC(=O)Nc1ccc(NC(=O)C(C)OC(=O)C2CCN(S(=O)(=O)c3cccs3)CC2)cc1 (stereo not shown) | -2.1
60 | CCCCN(C(=O)C1=COCCO1)c1c(N)n(CCC)c(=O)[nH]c1=O | 12.1
61 | COc1cccc(NC(=O)c2ccc3c(c2)CCN3S(C)(=O)=O)c1 | 3.4
62 | O=C(Nc1ccnn1C1CCN(C/C=C/c2ccccc2)CC1)c1ccccc1Cl | -83.8
63 | Cc1ccc(NC(=O)CCS(=O)(=O)c2cccc3nonc23)c(Cl)c1 | 7.04
64 | Cc1ccc(NC(=O)Cn2ccsc2=N)cc1S(=O)(=O)N(C)C.Cl | -13.4
65 | CC(OC(=O)c1ccccc1NCCO)C(=O)Nc1ccc(S(=O)(=O)N2CCOCC2)cc1 (stereo not shown) | 5.98
66 | C=C(C)c1cccc(C(C)(C)NC(=O)N2CCC(C(N)=O)CC2)c1 | 24.8

Row | SMILES | hERG current change (%, negative = inhibition) at 10uM [%]
67 | CCN(C(=O)c1ccco1)c1nc(-c2ccc(OC)cc2)cs1 | 8.13
68 | CCCS(=O)(=O)c1c(S(=O)(=O)CCC)c2c(N)cccn2c1C(=O)c1ccc(F)cc1 | -7.47
69 | CCOc1ccc(C(=O)/C=C/c2ccc(SC)cc2)cc1 | -4.39
70 | O=C(O)CCCN1C(=O)C2C3CC(C2C1=O)C1C(c2ccccc2)c2sc(=O)[nH]c2SC31 (stereo not shown) | 7.77
71 | COc1nc(C)nc(C)c1Oc1ccc(Cl)cc1Cl | 10.2
72 | CC(=O)Nc1cccc(C(=O)/C=C/c2ccc(F)cc2)c1 | -31.1
73 | COC(=O)CSc1nnc(CNC(=O)c2cccc(C)c2)n1-c1ccccc1OC | 10.8
74 | COc1ccc(C)cc1S(=O)(=O)NCC(c1ccc2c(c1)OCO2)N1CCOCC1 (stereo not shown) | -13.6
75 | O=C(/C=C/c1ccc2c(c1)OCO2)Nc1nc2ccccc2s1 | -5.67
76 | CC(C)Sc1nc2c(c(=O)n1C)SC(C)C2 (stereo not shown) | -15.8
77 | Cc1ccc(C)c(NC(=O)c2ccc3ccccc3n2)c1 | -8.34
78 | Cc1ccn2c(=O)nc(SCC(=O)N3CCCC3)nc2c1 | 1.53
79 | CCC(C)(C)C1CCc2c(sc(N)c2C(N)=O)C1 (stereo not shown) | -40.7
80 | CCC1(c2ccc(F)cc2)NC(=O)N(CC(=O)Nc2cccc(S(=O)(=O)N3CCCCC3)c2)C1=O (stereo not shown) | 7.13
81 | CNC(=S)NNC(=O)c1cccs1 | 7.92
82 | CC(O)c1n(C)c(Cl)c[n+]1C.[I-] (stereo not shown) | 4.19
83 | O=C(CN1C(=O)NC(c2ccccc2)(c2ccccc2)C1=O)NC1CCS(=O)(=O)C1 (stereo not shown) | 5.23
84 | COCCN(C(=O)COC(=O)CCOc1ccccc1C)c1c(N)n(Cc2ccccc2)c(=O)[nH]c1=O | 2.58
85 | CSc1nc(N)nc(SCC(=O)Nc2cccc(F)c2)c1C#N | 10.8
86 | Oc1c(I)cc(Cl)c2cccnc12 | 16.6
87 | Cc1c(/C=N\NC(=O)c2c[nH]c3ccccc23)cnn1C | 7.42
88 | COc1cc(-c2cc(C(=O)Nc3nc4ccccc4s3)c3ccccc3n2)cc(OC)c1OC | 35.9
